The results in this text go back to EP4154878A1, “APPLICATION OF ACTIVE […] ROOT OF […] OR PHARMACEUTICALLY ACCEPTABLE SALT THEREOF IN PREPARING ANTIVIRAL DRUG” (priority 2020, dated 2021).

In the test the target is T1, SARS-CoV-2 HR1P and HR2P (Severe acute respiratory syndrome coronavirus 2, UniProt P0DTC2).
T1 construct: made in house; host or cells: chemical peptide synthesis (no expression host)
Format: biochemical.

Each structure is given as a SMILES string.

As for `O=C(/C=C/c1ccc(O)c2c1[C@H](C(=O)O[C@H](Cc1ccc(O)c(O)c1)C(=O)O)[C@@H](c1ccc(O)c(O)c1)O2)O[C@H](Cc1ccc(O)c(O)c1)C(=O)O` [salvianolic acid B], the “percentage of an α-helix by combination by HR1P and HR2P” value worked out at 22.24%.
